# Assay results: the supplement of paper PMC11417369
# ± gives the standard deviation of the averaged measurements. The list shows a part of the results.
# Tested on: PfAP2-G AP2 domain (GST-tagged)
# Experiment: gcPBM binding intensity (ln(normalized median fluorescence intensity)); higher = stronger DNA binding
# How it was run: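 Binding of GST-tagged P. falciparum DNA-binding domains, expressed in E. coli and used at about 25 μg on average, was carried out for 1 h in 1× PBS containing 1% milk, 0.2 mg/ml BSA, 0.5% salmon testes DNA and 0.03% Triton X-100. The target was an Agilent 4 × 180k array of primer-extended double-stranded 36-bp intergenic genomic probes plus negative controls, read with Alexa488 anti-GST antibody at 488 nm. Binding intensity is the highest Masliner-normalised natural-log median intensity across replicate spots of either probe orientation.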
row,Sequence,gcPBM binding intensity (ln)
1,AAAAAAAAAAAAAAAGTGCACAGTCGTTTTAAAAAA [GTGCAC_site9848],10.8 ± 0.54
2,CTCAATGTTTGCGATACATGCAAAAATTTTTAGAAT [TGCATGCA_site165],10.1 ± 0.24
3,ACAAACATTAGGGAAGCATGCAATATTTTTTTACAT [TGCATGCA_site372],9.72 ± 0.071
4,CTTATTATTATATGGGTGCTCATATTTTTCTTTTTT [GTGCAC_site9723],9.99 ± 0.014
5,ATATATATATATAAATGTACATTTTTCAATAGTTTT [XGTACX_site7449],10.8 ± 0.4
6,TATAAATAAATAGATACACACATATATATAAATACA [CACACA_site155],9.98 ± 0.014
7,TACTTTTTATTTTCTTGTACTTAATTGTCCAGATTT [XGTACX_site4334],11.3 ± 0.84
8,ATTATATACATATATATACACACGTAGTTTCTATTT [CACACA_site8697],9.81 ± 0.099
9,AGATTTAAATTTATATGTACATAATATGGGCGTATA [XGTACX_site6631],11.5 ± 0.88
10,GGTCTTCTTAATATACTGCACTGTATACGTATATAA,10.5 ± 0.31
11,TTCATAAAATGATATTGTACAAATAAATAATAGTAT [XGTACX_site819],11 ± 0.61
12,ATTCTTATTTAAAGGTGTACTCTTAAACAGATTTTA [XGTACX_site3526],11.5 ± 1
13,CACCCCCACAGACACACACACACACCCACATATATA [CACACA_site365],11.1 ± 0.65
14,GTACACATATAGTAATAATTTTATTATATTTTTTTG [CACACA_negctrl_site843],10.8 ± 0.38
15,ATTTTAATATAAAATACACACTACTATTATAAATAT [CACACA_site4917],10.1 ± 0.13
16,TGTAGATTTTGTAACACACACATATATATACATATA [CACACA_site2405],9.985 ± 0.078
17,AATATATGGTTCCATGATATTAAATTCAATTTAATG [CACACA_negctrl_site605],10.3 ± 0.19
18,TTTTTTTTGTTCTATACAATTATAAAAATAAAATAT [XGTACX_negctrl_site53],9.8 ± 0.15
19,GTACATAGATTGTACATACACACCTATATAAATATC [CACACA_site3225],11.2 ± 0.58
20,AATGTAAAAGTAAACACACACATATATAAATACATA [CACACA_site5386],10.005 ± 0.007
21,TACACAAGCAGACACACACACATATATATATATATA [CACACA_site1270],10 ± 0.19
22,GCTTATATAAAAAGTTGTACAACCGAATCTTTTACA [XGTACX_site2119],11.5 ± 0.85

row,Sequence,gcPBM binding intensity (ln)
1,TAATATCATTTATGTAGTACTATAACAAGAACTATA [XGTACX_site3618],11.3 ± 0.63
2,AAAAAAAAAAAGCACACACACATATGAGTATATATA [CACACA_site4683],10.2 ± 0.11
3,TGTCATTTAATTTTTTGTACGAAAAAAACATATAAA [XGTACX_site4952],11.1 ± 0.78
4,TAGATATATAGACACACACACATTAATACCTATATT [CACACA_site7605],10.09 ± 0.028
5,AGTTGTTTTAATAATGCATGTTATTTTATTTTAATA [TGCATGCA_site168],9.71 ± 0.17
6,GTATATATATATGTATATATTTTATTTTATTTTTAT [CACACA_negctrl_site1439],9.4 ± 0.23
7,TATATATATAGACACACACACACATATATATATATA [CACACA_site9366],10.2 ± 0.28
8,AATTCAAAATAAAAATGTACATATATCAGAATATGG [XGTACX_site42],11 ± 0.56
9,ATATATAATCATATGTGTACATATATATTAATTTAA [XGTACX_site2839],11.4 ± 0.91
10,ACTTGTAAGAAACACACACACACACCGATATATATA [CACACA_site4594],10.1 ± 0.16
11,AAAAATAAGAAAAAGTGTACTTTATTATGTATATAT [XGTACX_site2305],11.4 ± 0.85
12,ATTATTTTTTTTCTTATACACACCATGCATCAAACT [CACACA_site2128],10.2 ± 0.16
13,AAAAAAAAAAAAAAAACACACATTTAATGAACTTAT [CACACA_site1276],10.4 ± 0.18
14,ATGAGAAAATATATTATTTTATATGAACAAGTTTAT [XGTACX_negctrl_site372],9.8 ± 0.12
15,AAATGTTATATATAATGTACTTGTAAGAACGTTCCT [XGTACX_site2840],11.1 ± 0.68
16,AATAATGTATGAAATAAACACACAAGTAAGTACATA [CACACA_site8776],11.7 ± 0.91
17,ATAATTTTAAATAAATGTACATATAGATGTGTGTAA [XGTACX_site3958],11.2 ± 0.67
18,AAAATTATATATTATAGTACATAAAATATTGATAAA [XGTACX_site8988],11.1 ± 0.66
19,AAGATACACTTAATCGCACACGAAATTATATATTTA [CACACA_site3063],10.1 ± 0.24
20,TTTTTTTTTTATGTTATTAAAAAAAAAAAAAATTAA [CACACA_negctrl_site222],9.99 ± 0.42
21,TATAACATTGTATGAATGCACTTTTATCTATTTTAA [GTGCAC_site9903],9.79 ± 0.18
22,TATTTATTTATATACACACACTTGTATAAAAAATGT [CACACA_site7048],10.3 ± 0.33
